From patent US9357779B2 (priority 2010, dated 2016)

Assay: physchem
Settings: pH 2.7, log P (pH 2.7), pH 2.7, value given in preparation example text

| SMILES | chromatographic logP |
| --- | --- |
| Cc1cc(C(F)(F)F)nn1CC(=O)N1CCC(c2nc(C(=O)/C=C/c3c(F)cccc3F)cs2)CC1 [Compound I-12, (2E)-3-(2,6-Difluorophenyl)-1-[2-(1-{[5-methyl-3-(trifluoromethyl)-1H-pyrazol-1-yl]acetyl}piperidin-4-yl)-1,3-thiazol-4-yl]prop-2-en-1-one] | 3.83 |
| Cc1cc(C(F)(F)F)nn1CC(=O)N1CCC(c2nc(C(=O)CCc3ccccc3)cs2)CC1 [Compound I-14, 1-[2-(1-{[5-Methyl-3-(trifluoromethyl)-1H-pyrazol-1-yl]acetyl}piperidin-4-yl)-1,3-thiazol-4-yl]-3-phenylpropan-1-one] | 3.64 |
| CCOc1ccccc1C(=O)CCc1csc(C2CCN(C(=O)Cn3nc(C(F)(F)F)cc3C)CC2)n1 [Compound I-20, 1-(2-Ethoxyphenyl)-3-[2-(1-{[5-methyl-3-(trifluoromethyl)-1H-pyrazol-1-yl]acetyl}piperidin-4-yl)-1,3-thiazol-4-yl]propan-1-one] | 3.7 |
| O=C(/C=C/c1csc(C2CCN(C(=O)Cn3nc(C(F)F)cc3C(F)F)CC2)n1)c1c(F)cccc1F [Compound I-22, (2E)-3-[2-(1-{[3,5-Bis(difluoromethyl)-1H-pyrazol-1-yl]acetyl}piperidin-4-yl)-1,3-thiazol-4-yl]-1-(2,6-difluorophenyl)prop-2-en-1-one] | 3.35 |
| Cc1ccc(Cl)cc1NC(=O)N1CCC(c2nc(C(=O)CC3CCCCC3)cs2)CC1 [Compound I-25, N-(5-Chloro-2-methylphenyl)-4-[4-(cyclohexylacetyl)-1,3-thiazol-2-yl]piperidine-1-carboxamide] | 4.51 |
| O=C(CC1CCCCC1)c1csc(C2CCN(C(=S)Cn3nc(C(F)F)cc3C(F)F)CC2)n1 [Compound I-58, 1-[2-(1-{2-[3,5-Bis(difluoromethyl)-1H-pyrazol-1-yl]ethanethioyl}piperidin-4-yl)-1,3-thiazol-4-yl]-2-cyclohexylethanone] | 4.63 |
| CON=C(CC1CCCCC1)c1csc(C2CCN(C(=O)Cn3nc(C(F)F)cc3C(F)F)CC2)n1 [Compound I-60, 2-[3,5-Bis(difluoromethyl)-1H-pyrazol-1-yl]-1-{4-[4-(2-cyclohexyl-N-methoxyethanimidoyl)-1,3-thiazol-2-yl]piperidin-1-yl}ethanone] | 4.8 |

Assay: not given
Settings: neutral range, pH 7.8, 0.001 molar aqueous ammonium bicarbonate/acetonitrile

| SMILES | log P [b] |
| --- | --- |
| COc1ccccc1C(=O)C#Cc1csc(C2CCN(C(=O)Cn3nc(C(F)(F)F)cc3C)CC2)n1 [Compound I-2] | 3.36^[b] |
| Cc1cc(C(F)(F)F)nn1CC(=O)N1CCC(c2nc(C(=O)Cc3ccccc3Br)cs2)CC1 [Compound I-13] | 3.71^[b] |
| Cc1cc(C(F)(F)F)nn1CC(=O)N1CCC(c2nc(C(=O)CC3CCCCC3)cs2)CC1 [Compound I-17] | 4.24^[b] |
| Cc1cc(C(F)(F)F)nn1CC(=O)N1CCC(c2nc(CCC(=O)c3ccccc3Cl)cs2)CC1 [Compound I-21] | 3.63^[b] |
| O=C(/C=C/c1csc(C2CCN(C(=O)Cn3nc(C(F)F)cc3C(F)F)CC2)n1)c1ccccc1Br [Compound I-29] | 3.49^[b] |
| O=C(CC1CCCCC1)c1csc(C2CCN(C(=O)Nc3cc(C(F)F)ccc3C(F)F)CC2)n1 [Compound I-30] | 4.34^[b] |
| O=C(/C=C/c1csc(C2CCN(C(=O)Cn3nc(C(F)F)cc3C(F)F)CC2)n1)c1ccccc1I [Compound I-33] | 3.64^[b] |
| O=C(/C=C/c1csc(C2CCN(C(=O)Cn3nc(C(F)F)cc3C(F)F)CC2)n1)c1ccc(F)cc1Br [Compound I-34] | 3.68^[b] |
| O=C(/C=C/c1csc(C2CCN(C(=O)Cn3nc(C(F)F)cc3C(F)F)CC2)n1)c1cc(F)ccc1Cl [Compound I-35] | 3.6^[b] |
| O=C(/C=C/c1csc(C2CCN(C(=O)Cn3nc(C(F)F)cc3C(F)F)CC2)n1)c1c(F)cccc1Cl [Compound I-36] | 3.51^[b] |
| O=C(/C=C/c1csc(C2CCN(C(=O)Cn3nc(C(F)F)cc3C(F)F)CC2)n1)c1ccccc1 [Compound I-37] | 3.31^[b] |
| Cc1cccc(C(=O)/C=C/c2csc(C3CCN(C(=O)Cn4nc(C(F)F)cc4C(F)F)CC3)n2)c1 [Compound I-38] | 3.63^[b] |
| O=C(/C=C/c1csc(C2CCN(C(=O)Cn3nc(C(F)F)cc3C(F)F)CC2)n1)c1c(F)cc(F)cc1F [Compound I-57] | 3.5^[b] |
| O=C(/C=C/c1c(F)cccc1F)c1csc(C2CCN(C(=O)Cn3nc(C(F)F)cc3C(F)F)CC2)n1 [Compound I-62] | 3.59^[b] |
| Cc1cccc(C)c1C(=O)/C=C/c1csc(C2CCN(C(=O)Cn3nc(C(F)F)cc3C(F)F)CC2)n1 [Compound I-63] | 3.64^[b] |
